Measurements from PMC7819943, “Rice protein-binding microarrays: a tool to detect cis-acting elements near promoter regions in rice”.
The other results are listed elsewhere or left out.

Target: T1, OsWOX13 (Oryza sativa, UniProt Q5QMM3 1-267)
T1 sequence: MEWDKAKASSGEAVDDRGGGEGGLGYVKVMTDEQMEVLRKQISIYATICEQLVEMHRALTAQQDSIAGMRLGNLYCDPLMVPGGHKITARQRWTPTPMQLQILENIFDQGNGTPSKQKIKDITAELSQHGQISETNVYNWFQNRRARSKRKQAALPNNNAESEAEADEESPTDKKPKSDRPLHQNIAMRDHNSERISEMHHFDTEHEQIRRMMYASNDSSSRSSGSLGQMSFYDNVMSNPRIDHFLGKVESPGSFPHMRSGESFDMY
Assay: protein-binding microarray (RPBM); PBS, 2% BSA, 51.3 ng/ul salmon testes DNA, 50 uM zinc acetate, 200 nM TF, 25 C, 1 h; high values mean tight binding
Conditions: protein: recombinant; tags: N-terminal polyhistidine and DsRed monomer fusion (pET32a); label: CyDye5-dUTP incorporated in the synthesized complementary strand; 3' TTTTT single-stranded linker to array surface; dsDNA, one strand shown
Procedure, shortened: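 An Axon 4000B scanner gave the binding signal as per-feature fluorescence intensity in arbitrary units. This followed washing of a custom Agilent array that had been incubated for 1 h at 25 °C with 200 nM protein in PBS, 2% BSA, salmon testes DNA and 50 µM zinc acetate. The proteins were transcription factors fused at the N-terminus to polyhistidine and DsRed, expressed in E. coli BL21-CodonPlus and purified on Ni–NTA.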

Sequence | binding signal
TTTTAGTTTTCCTCGATTAATTAATACTGTCTTTAAATCTCGGAGTCACCTAGTGCAG | 4760 fluorescence intensity (a.u.)
CTTTAATTACTAACAAATTATGGATTTCGAGCCCTGCTCTCGGAGTCACCTAGTGCAG | 43100 fluorescence intensity (a.u.)
TGCTATGATTTAGTAGTCATTGAGACTTATATTCCTCATACGGAGTCACCTAGTGCAG | 6670 fluorescence intensity (a.u.)
ACGGTGATTGATCGTAAGGAAATTTCCACTTTGCCAAACACGGAGTCACCTAGTGCAG | 27700 fluorescence intensity (a.u.)
TCTATAAATTAATTGGCCACAGAATCAGTGATATATCTAGCGGAGTCACCTAGTGCAG | 47300 fluorescence intensity (a.u.)
GTCTTCAATCAGTTACACAATATAATTTCTTACCAACCGACGGAGTCACCTAGTGCAG | 25800 fluorescence intensity (a.u.)
ACTAAATTTAGGCTGTATGTATCAGTTATTTCTTCCAGATCGGAGTCACCTAGTGCAG | 11500 fluorescence intensity (a.u.)
TCTTAGTAATGATTATGGTCTTCAGCCTAGGCAGCCTTCCCGGAGTCACCTAGTGCAG | 3880 fluorescence intensity (a.u.)
CCTAATTAACATACCCATGCAACAGCCCCATGGAGCAGGACGGAGTCACCTAGTGCAG | 32200 fluorescence intensity (a.u.)
TAAATGGATGATTAGTATAATCACTTATCGTTGATCTGTGCGGAGTCACCTAGTGCAG | 36100 fluorescence intensity (a.u.)
GTCAGTAATCAAGTTTATACGTATAAAATGCATGCACAAACGGAGTCACCTAGTGCAG | 3340 fluorescence intensity (a.u.)
GGTTGATTGGATGAGAGTGAATAAAATAAATATTTATGTTCGGAGTCACCTAGTGCAG | 45800 fluorescence intensity (a.u.)
TTTTATAAACTTGATCAAATTTGAATAAATTTGACTAGAACGGAGTCACCTAGTGCAG | 4500 fluorescence intensity (a.u.)
TTGCAGGCAATCTTGATAAATTAATTGCTCTACTTTAGAGCGGAGTCACCTAGTGCAG | 14400 fluorescence intensity (a.u.)
AAAATATAGCAAATTAGACATAACATGTAACACGAATCTGCGGAGTCACCTAGTGCAG | 5090 fluorescence intensity (a.u.)
TTAATTGATTTAGTTGGTGACCTTATATCTTGTTTAGATACGGAGTCACCTAGTGCAG | 60600 fluorescence intensity (a.u.)
GAGTGGTGGAGGGTTGTGATTGGATGAGTAGTGGAGGTAGCGGAGTCACCTAGTGCAG | 5190 fluorescence intensity (a.u.)
ATTTAAAGTTTTAATTTGTGATCATACGTGACAAACAGCGCGGAGTCACCTAGTGCAG | 5790 fluorescence intensity (a.u.)
ATGGCAGTTAATTTGATGTAAATTGCAACATTTCAAAAGCCGGAGTCACCTAGTGCAG | 24900 fluorescence intensity (a.u.)
AAAATAGATAATTTTATGACGGTGTTACCCCTGCAATTGCCGGAGTCACCTAGTGCAG | 17300 fluorescence intensity (a.u.)
ATCGGCATGTTCACCAGCTCTGATTGGTAGTACGATTTTACGGAGTCACCTAGTGCAG | 5140 fluorescence intensity (a.u.)

Sequence | binding signal
TACTAAGGAGTGATTAATTTGAGGCTATTCTTCCATGTCTCGGAGTCACCTAGTGCAG | 4050 fluorescence intensity (a.u.)
TTGTTTATTTATGCTTAGATTGTTGATTCCATCCTTGTGGCGGAGTCACCTAGTGCAG | 5690 fluorescence intensity (a.u.)
TAGCATATTGATTGAAAACCCGTTCCCATGCAATGTGGCACGGAGTCACCTAGTGCAG | 48600 fluorescence intensity (a.u.)
TTTACATGACTGAATGATGCTTTGTAGTATGATGCAGAGACGGAGTCACCTAGTGCAG | 5450 fluorescence intensity (a.u.)
GGGGATTGGTTTGGTGTGGGTGTTTTGTGTGGGGATTGATCGGAGTCACCTAGTGCAG | 11500 fluorescence intensity (a.u.)
TATGTCGAAATTAATTGAGATTTGAATAAAAGTGGGTTTTCGGAGTCACCTAGTGCAG | 23300 fluorescence intensity (a.u.)
TCAAAACTGAATTATCTTTGCGTGTGTGTTTGATCTATTTCGGAGTCACCTAGTGCAG | 3720 fluorescence intensity (a.u.)
AAGGGATTGATGATCTTGTACATAAGGAATACAAAGATCCCGGAGTCACCTAGTGCAG | 16500 fluorescence intensity (a.u.)
ATGATTTGATTGGTCAGGACATTATTATCTTGGTCGTACTCGGAGTCACCTAGTGCAG | 37500 fluorescence intensity (a.u.)
GCTCACTAATTTTATTCTGTATTCTTTGAAGGGTGTCAGCCGGAGTCACCTAGTGCAG | 9160 fluorescence intensity (a.u.)
ACCGAGTAAATTGTTTACTATCGACAGTTACACGTTACCACGGAGTCACCTAGTGCAG | 6300 fluorescence intensity (a.u.)
TTTCTAATTACTATACTTTACTACTCGAGTTGGTTGTGCACGGAGTCACCTAGTGCAG | 19400 fluorescence intensity (a.u.)
CCCCTGATGAAGCAAATCAGATTGATTGGTCCACAACAAGCGGAGTCACCTAGTGCAG | 52100 fluorescence intensity (a.u.)
TGAAACTGATTTTAAGGGCATCCGTGAATCGATTCTTCAGCGGAGTCACCTAGTGCAG | 9080 fluorescence intensity (a.u.)
GACCACTAATTAAGTTACTGGCTAGTAGCTTAGCTACTGACGGAGTCACCTAGTGCAG | 13200 fluorescence intensity (a.u.)
ATAATAGTTTAGATTAAACCAATAAACAGATAAAATCCATCGGAGTCACCTAGTGCAG | 4340 fluorescence intensity (a.u.)
CTTAAATAGGAAATGTTGCCGGTGACTGTAACATATCGATCGGAGTCACCTAGTGCAG | 7330 fluorescence intensity (a.u.)
AATGATTTATAGGTAAAACTTTTGCACATGTATTTTAGCGCGGAGTCACCTAGTGCAG | 30100 fluorescence intensity (a.u.)
ATGATTGGTTGTGAAAAGAATATAGGTGAAGTTTATATTTCGGAGTCACCTAGTGCAG | 37700 fluorescence intensity (a.u.)
TACGTAATATTTAAATAATCAATTATTTGATTATATATATCGGAGTCACCTAGTGCAG | 15200 fluorescence intensity (a.u.)
GCTAAAATTAGAAGTTTAATTGAAATTGAAACAATGTGACCGGAGTCACCTAGTGCAG | 51200 fluorescence intensity (a.u.)
